# Reference: the BET-seq Pho4 binding data (Le et al. 2018)
# Some of the results follow. The energies were worked out here from pooled read counts, against the library average; single values are noisy.
# Target: T1, Pho4 (S. cerevisiae) (UniProt P07270)
# T1 sequence: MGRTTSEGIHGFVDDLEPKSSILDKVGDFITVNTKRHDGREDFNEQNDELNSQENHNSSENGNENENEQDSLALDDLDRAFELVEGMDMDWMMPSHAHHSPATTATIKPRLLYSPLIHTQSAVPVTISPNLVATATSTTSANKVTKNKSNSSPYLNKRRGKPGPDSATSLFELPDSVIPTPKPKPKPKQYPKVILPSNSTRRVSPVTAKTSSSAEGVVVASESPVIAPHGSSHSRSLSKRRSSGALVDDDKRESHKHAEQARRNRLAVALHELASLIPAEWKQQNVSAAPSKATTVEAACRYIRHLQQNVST
# Test: relative binding free energy (BET-seq); higher = weaker binding
# Conditions: reference: library average
row,Sequence,relative binding free energy [kcal/mol]
1,TTGATCACGTGACATG,0.33
2,TGTACCACGTGCGGGT,-0.08
3,AGACGCACGTGGGTTA,-0.2
4,TGGCTCACGTGGTGTT,0.18
5,AAGGCCACGTGCAGGG,-0.07
6,TTTATCACGTGTGTAG,0.2
7,GGGGGCACGTGTGACT,-0.01
8,TTCGTCACGTGTCGAG,0.15
9,GGTAGCACGTGGTTGA,-0.15
10,CTTGTCACGTGTTTAG,0.04
11,GTCTGCACGTGGTAGA,-0.03
12,ACTTTCACGTGTGGTT,0.28
13,TGAAGCACGTGAAGTA,0.19
14,CAGGTCACGTGCGTGT,-0.04
15,ATATGCACGTGGAGGT,-0.06
16,TATTTCACGTGCATAT,0.32
17,ATTTGCACGTGGTTTA,-0.1
18,GGGCTCACGTGAGATG,0.55
19,TCGAACACGTGGTGTT,-0.09
20,ATGTACACGTGCGTAT,0
21,TTGGACACGTGGATAT,0.18
22,AAGTTCACGTGAGTCT,0.45
23,GGACTCACGTGGTGGA,0.32

row,Sequence,relative binding free energy [kcal/mol]
1,GGATTCACGTGGTTCT,0.13
2,GTGGCCACGTGTGGTT,-0.01
3,AAGATCACGTGTTGTG,0.23
4,ATAGACACGTGGGCTT,-0.08
5,TTTTGCACGTGGGGGT,-0.04
6,CTTAGCACGTGTTAGG,-0.04
7,GTTTTCACGTGTAGAA,0.23
8,ATGTGCACGTGTTTAC,0
9,TTAAACACGTGGATTA,0.07
10,ATTGTCACGTGCGTGC,0.03
11,TATGACACGTGTTGTT,0.06
12,TAACACACGTGTTTGG,0.04
13,TGAAACACGTGGTATT,-0.02
14,TTTGTCACGTGTGCTG,0.07
15,ATAGTCACGTGAGGAA,0.29
16,TAATGCACGTGGTTCT,-0.2
17,ATGTACACGTGTTGTA,0.01
18,TACGACACGTGTTGTT,0.03
19,TGGTACACGTGTTCGG,0.13
20,ACATGCACGTGTGGTG,0.07
21,TGTATCACGTGTATTT,0.14
22,GGGATCACGTGGCTTA,0.06
23,TATGTCACGTGCTTGT,0.07

row,Sequence,relative binding free energy [kcal/mol]
1,AGCTTCACGTGGGATT,0.33
2,GAGCGCACGTGCGTGG,-0.22
3,TGGTTCACGTGAAGTA,0.31
4,AAGGTCACGTGTGAGC,0.09
5,TGAGTCACGTGGAAGA,0.26
6,TTGCTCACGTGGGCTT,0.11
7,GAGATCACGTGGGCAG,0.25
8,GTGTGCACGTGTAATG,-0.06
9,TGTGGCACGTGTGATG,0.06
10,ATTGCCACGTGTTGTG,-0.12
11,GTTGTCACGTGTAGCG,0.25
12,ATGAGCACGTGTGGGG,0.04
13,AGGGGCACGTGGATAT,-0.15
14,AGTGGCACGTGGTTAA,-0.1
15,ATTTGCACGTGGTACT,-0.09
16,GTAGGCACGTGGTTAT,-0.2
17,TTGTTCACGTGGAGGT,0.3
18,GGGGGCACGTGCGTGA,-0.19
19,TGTCGCACGTGCGGGA,-0.19
20,TGAAACACGTGAAGTG,0.11
21,TCTGACACGTGTAGTT,0.05
22,TTTTTCACGTGAAACT,0.42
23,TTCGACACGTGAAAGG,0.46

row,Sequence,relative binding free energy [kcal/mol]
1,GAATGCACGTGTGGCT,0.06
2,AGCGGCACGTGGAAGT,0.03
3,GTGGGCACGTGTCTGG,-0.14
4,TATAGCACGTGAAGGT,0.07
5,CTTCACACGTGTTGGT,0.05
6,TGGGTCACGTGTATGC,0.16
7,ACTTGCACGTGGGTTG,-0.06
8,TAGAACACGTGTAGGT,-0.04
9,AACTGCACGTGTTGTG,0.06
10,TGGGGCACGTGAGATC,0
11,AGGGGCACGTGAGGCA,-0.04
12,GGCAGCACGTGTGTGC,-0.03
13,GTATGCACGTGTATGC,-0.08
14,GTTGTCACGTGCGACG,0.17
15,TGTTTCACGTGCTTGA,0.19
16,ATAGCCACGTGGGGTG,-0.28
17,GGGGTCACGTGATGTC,0.36
18,GGGCCCACGTGGTTGG,-0.04
19,TGAAGCACGTGAATGT,0.19
20,CAGAGCACGTGTTGTT,-0.1
21,CGGGGCACGTGTGTTT,-0.02
22,GTTGGCACGTGGGGCT,-0.11
23,CAGGTCACGTGGTTGG,0.1

row,Sequence,relative binding free energy [kcal/mol]
1,GGTTACACGTGCATAG,0.14
2,TGAGACACGTGAGGGT,0.24
3,GGGGACACGTGTTAGC,-0.04
4,GTTGACACGTGCAAGT,0.1
5,CGGTGCACGTGGGTAA,-0.16
6,TTGAGCACGTGACAGT,0.12
7,ACATTCACGTGGGATT,0.06
8,ATTAACACGTGTTTAG,-0.05
9,TTAGCCACGTGAGGGT,0.1
10,GTGGGCACGTGTCGCA,-0.12
11,CGGTGCACGTGAGAGT,0.08
12,CTGTTCACGTGGGTTG,0.12
13,TAGGGCACGTGAAAGT,0.14
14,TGAGCCACGTGCGTGG,-0.1
15,GTGTGCACGTGCTTCG,0.06
16,GGTTGCACGTGTTCGT,0.03
17,TGCGGCACGTGTGGTC,-0.09
18,AAATGCACGTGGGGGA,-0.19
19,CGTTACACGTGCGGGT,0.07
20,CATGTCACGTGGCTGT,0.08
21,CTGGCCACGTGGTCGG,-0.1
22,ATTGTCACGTGTAATC,0.29
23,TGGTGCACGTGCTGAT,-0.09
